Assay results from PubChem BioAssay AID463173 (ICCB-Longwood Screening Facility, Harvard Medical School, 2010).
Hit rate of the full screen: of about 52,000 compounds, about 4,300 (8.3%) were called active. Cut-off read from the data, not from the text of the source: active = survival mostly below about 52% (no sharp cut-off); inactive = mostly above about 56%. The list shows a part of the results.

system: DeltatarO mutant; assay: growth inhibition of S. aureus wild type versus tarO mutant, primary screen, teichoic acid synthesis inhibitors, RN4220, OD600 (AID 463173); conditions: OD600, 18 h, stronger effect = lower value, screened at 18.75 µg/mL (by protocol)

Question: CSc1cccc(NC(=O)N2CCN(c3cc(-c4noc(C)n4)ccc3C)CC2)c1 was tested. Which survival did it give?
Answer: inactive: 68%

Question: For CC(C)NC(=O)C(N)Cc1c[nH]c2ccccc12 (configuration not stated), which survival is on record?
Answer: inactive: 92%

Question: How did the survival turn out when CCOc1cc(C(=O)N2CCc3c([nH]c4ccccc34)C2c2ccccc2)cc(OCC)c1OCC (configuration not stated) was run?
Answer: inactive: 91%

Question: Which survival does the source give for CCCn1c(C(=O)OCC)cc2sccc21 here?
Answer: inactive: 100%

Question: For N#Cc1c[nH]n2c(NC3CCCC3)c(-c3cccc(Cl)c3)nc12, which survival is on record?
Answer: inactive: 48%

Question: Which survival does the source give for COc1ccc(C)cc1NC(=O)Cn1c(=O)ccc2cc(S(=O)(=O)N3CCCC3)ccc21 here?
Answer: inactive: 72%

Question: How did the survival turn out when CCOC(=O)c1sc2ncn(CC(=O)Nc3ccc(C)cc3Br)c(=O)c2c1C was run?
Answer: inactive: 66%

Question: Which survival does the source give for O=C(CCCN1C(=O)c2ccccc2C1=O)N1CCCCC1 here?
Answer: inactive: 71%

Question: O=c1onc(-c2ccc(Cl)cc2)n1Cc1ccc(F)cc1 was tested. Which survival did it give?
Answer: inactive: 90%

Question: How did the survival turn out when COc1ccc(/C=N/N=C2/NC(=O)/C(=C(/C)c3nonc3C)S2)cc1OC was run?
Answer: inactive: 69%

Question: OCC(O)CN1CCc2ccccc21 (configuration not stated) was tested. Which survival did it give?
Answer: inactive: 98%

Question: COc1ccccc1CNc1ccc(-c2nc(-c3ccncc3)no2)cc1[N+](=O)[O-] was tested. Which survival did it give?
Answer: active: 45%

Question: With Cn1c(CNc2cccc(Cl)c2)nnc1SCC(=O)OC1CCCCC1 as the compound, how does the survival read?
Answer: inactive: 94%

Question: With Cc1cc2ccccc2n1CCNC(=O)c1cccc(Cl)c1 as the compound, how does the survival read?
Answer: inactive: 65%

Question: How did the survival turn out when COc1ccc(CNC(=O)CC(c2ccc(OC)c(OC)c2)N2Cc3ccccc3C2=O)cc1 (configuration not stated) was run?
Answer: inactive: 87%

Question: Which survival does the source give for CC(C)c1ccc(NC(=O)c2cc(S(=O)(=O)NCc3ccccc3Cl)ccc2F)cc1 here?
Answer: inactive: 103%

Question: For CCOc1ccc(Sc2cc(C(=O)NCCc3ccccc3)c3ccccc3n2)cc1, which survival is on record?
Answer: inactive: 73%

Question: Which survival does the source give for CCOc1nc(NC(=O)NS(=O)(=O)Oc2ccccc2)nc(-c2ccccc2)n1 here?
Answer: inactive: 70%

Question: With COc1cccc(CNC(=O)C2CCC(CNS(=O)(=O)c3ccc(Br)s3)CC2)c1 (configuration not stated) as the compound, how does the survival read?
Answer: inactive: 71%

Question: For CCOC(=O)C(Cc1c[nH]c2ccccc12)NC(=O)COc1ccc(Cl)c(C)c1 (configuration not stated), which survival is on record?
Answer: active: 36%

Question: Which survival does the source give for CN(Cc1ccccc1)C(=O)c1ccco1 here?
Answer: inactive: 84%

Question: CCc1ccc(Sc2cc(C(=O)NC(C)CC)c3ccccc3n2)cc1 (configuration not stated) was tested. Which survival did it give?
Answer: inactive: 66%

Question: How did the survival turn out when COc1ccccc1-n1c(/C=C/c2c(C)n(C)c3ccccc23)nc2ccccc2c1=O was run?
Answer: inactive: 87%

Question: For CCOc1ccc(OCC(=O)Nc2nnc3n2CCS3)cc1, which survival is on record?
Answer: inactive: 67%

Question: How did the survival turn out when COc1ccc(-c2noc(CSc3nnc(-c4ccncc4)n3-c3ccc(C)cc3)n2)cc1 was run?
Answer: inactive: 55%

Question: With CCC(C)(C)n1nnnc1CN1CCC(NC(=O)COC)CC1 as the compound, how does the survival read?
Answer: inactive: 86%

Question: How did the survival turn out when CCc1ccccc1NC(=O)CSc1nc(-c2ccccc2OC)nc2c1Cc1c(CO)cnc(C)c1O2 was run?
Answer: inactive: 73%

Question: How did the survival turn out when Cc1ccc2c(c1)cc1c(=O)n(CC(=O)NC3CCCCC3)nc(C)n12 was run?
Answer: inactive: 104%

Question: Which survival does the source give for COC(=O)C(CCSC)NC(=O)c1cc2c(n(-c3ccc(C)cc3)c1=O)CC(C)(C)CC2=O (configuration not stated) here?
Answer: inactive: 51%

Question: For Cc1cccn2c(=O)c3cc(C(=O)NCc4ccccc4)c(=N)n(CCOCCO)c3nc12, which survival is on record?
Answer: inactive: 55%

Question: CCOC(=O)c1ccc(N=C2NC(=O)/C(=C/c3ccc(N4CCOCC4)cc3)S2)cc1 was tested. Which survival did it give?
Answer: inactive: 98%

Question: With CCOC(=O)CC1c2cc(OCC)c(OCC)cc2CCN1C(=O)Nc1cccc(Cl)c1 (configuration not stated) as the compound, how does the survival read?
Answer: active: 41%

Question: For Cc1nc2nc(SCC(=O)NCCc3ccc(Cl)cc3)nn2c(C)c1Cc1ccccc1, which survival is on record?
Answer: active: 46%

Question: For COC(=O)c1sc2cccc(F)c2c1S(=O)(=O)N1CCN(c2ccc(F)cc2)CC1, which survival is on record?
Answer: inactive: 81%

Question: How did the survival turn out when CCCSc1ncc(Cl)c(C(=O)Nc2nc3ccc(OCC)cc3s2)n1 was run?
Answer: inactive: 63%

Question: How did the survival turn out when Cc1ccc(CNC(=O)c2ccc3c(=O)n(-c4ccccc4)c(=O)[nH]c3c2)cc1 was run?
Answer: inactive: 84%

Question: With CC1=C(C(=O)Nc2ccccc2)C(c2ccc(C)o2)NC(=S)N1 (configuration not stated) as the compound, how does the survival read?
Answer: active: 61%

Question: How did the survival turn out when Cc1ccc(S(=O)(=O)c2nc(-c3cccc(C)c3)oc2N2CCN(c3ccccc3)CC2)cc1 was run?
Answer: inactive: 114%

Question: For COc1cc(OC)c(NC(=O)NCc2ccc3c(c2)CCN3C(=O)c2ccccc2)cc1Cl, which survival is on record?
Answer: inactive: 90%

Question: With Cc1cc(C)cc(N2CC34C=CC(O3)C(C(=O)OCC(=O)NC3CCCC3)C4C2=O)c1 (configuration not stated) as the compound, how does the survival read?
Answer: inactive: 84%

Question: How did the survival turn out when Cc1ccc(C)c(NC(=O)Cn2cc(C(=O)c3ccc(Cl)cc3)c(=O)c3ccc(C)nc32)c1 was run?
Answer: inactive: 74%

Question: For O=C(CC1C(=O)OCCN1Cc1ccccc1)Nc1ccc(F)cc1 (configuration not stated), which survival is on record?
Answer: inactive: 172%

Question: How did the survival turn out when CC1CCN(S(=O)(=O)c2ccc(C(=O)Nc3sc4c(c3C(N)=O)CC(C)(C)NC4(C)C)cc2)CC1 was run?
Answer: inactive: 71%

Question: Cc1ccccc1Cn1cnc2ccccc21 was tested. Which survival did it give?
Answer: inactive: 77%

Question: N#Cc1ccc(CSc2nc3c(c(=O)[nH]2)CCC3)cc1 was tested. Which survival did it give?
Answer: inactive: 67%

Question: For COc1cc(NC(=O)CSc2nc(-c3ccc(C)cc3)nc3c2Cc2ccccc2O3)cc(OC)c1, which survival is on record?
Answer: inactive: 85%

Question: For O=C(NCc1ccccc1)c1ccc2c(c1)CCN2S(=O)(=O)c1ccccc1, which survival is on record?
Answer: active: 36%

Question: Which survival does the source give for CCCc1ccc(S(=O)(=O)N2CCC(Oc3ccc(-n4cnnn4)cc3)CC2)cc1 here?
Answer: inactive: 91%

Question: How did the survival turn out when CNC(=O)c1ccc(Nc2nnc(-c3ccc(C)c(S(=O)(=O)N(C)C)c3)c3ccccc23)cc1 was run?
Answer: inactive: 67%

Question: For CCOC(=O)c1[nH]c(C)c(CCC(=O)NCc2ccccc2Cl)c1C, which survival is on record?
Answer: inactive: 91%

Question: How did the survival turn out when Cc1ccc(NC(=O)CSc2nc(=O)n(CCCN(C)C)c3c2CCC3)cc1F was run?
Answer: inactive: 71%

Question: For CCCCC(CC)CNC(=O)C1CCC(CNS(=O)(=O)c2cccc3nsnc23)CC1 (configuration not stated), which survival is on record?
Answer: inactive: 65%

Question: Cc1cc(C)cc(OCCCn2c(CCNC(=O)C3CCCCC3)nc3ccccc32)c1 was tested. Which survival did it give?
Answer: inactive: 35%

Question: COc1ccc(CCNC(=O)CCCn2c(=O)c3ccccc3n(Cc3c(C)cc(C)cc3C)c2=O)cc1OC was tested. Which survival did it give?
Answer: inactive: 89%

Question: For CCC(=O)N1c2ccc(S(=O)(=O)N3CCC(C)CC3)cc2CC1C (configuration not stated), which survival is on record?
Answer: inactive: 80%

Question: For COc1ccc(NC(=O)CSc2oc(-c3ccco3)nc2S(=O)(=O)c2ccc(Br)cc2)c(OC)c1, which survival is on record?
Answer: inactive: 67%

Question: Which survival does the source give for COc1ccc(-c2cc(C(=O)NCc3ccc(F)cc3)c3c(-c4ccc(F)cc4)[nH]nc3n2)cc1OC here?
Answer: inactive: 72%
